The whole screen tested about 310,000 compounds, of which about 2,200 (0.71%) showed an effect of 50% or more. The effect is printed as a negative number. The list shows a part of the results.
Biological target: human ether-à-go-go-related gene (hERG) potassium channel (human, UniProt Q12809)
Test: primary screen, population patch clamp on CHO cells stably expressing hERG

Sequence of human ether-à-go-go-related gene (hERG) potassium channel (Q12809 whole entry, looked up): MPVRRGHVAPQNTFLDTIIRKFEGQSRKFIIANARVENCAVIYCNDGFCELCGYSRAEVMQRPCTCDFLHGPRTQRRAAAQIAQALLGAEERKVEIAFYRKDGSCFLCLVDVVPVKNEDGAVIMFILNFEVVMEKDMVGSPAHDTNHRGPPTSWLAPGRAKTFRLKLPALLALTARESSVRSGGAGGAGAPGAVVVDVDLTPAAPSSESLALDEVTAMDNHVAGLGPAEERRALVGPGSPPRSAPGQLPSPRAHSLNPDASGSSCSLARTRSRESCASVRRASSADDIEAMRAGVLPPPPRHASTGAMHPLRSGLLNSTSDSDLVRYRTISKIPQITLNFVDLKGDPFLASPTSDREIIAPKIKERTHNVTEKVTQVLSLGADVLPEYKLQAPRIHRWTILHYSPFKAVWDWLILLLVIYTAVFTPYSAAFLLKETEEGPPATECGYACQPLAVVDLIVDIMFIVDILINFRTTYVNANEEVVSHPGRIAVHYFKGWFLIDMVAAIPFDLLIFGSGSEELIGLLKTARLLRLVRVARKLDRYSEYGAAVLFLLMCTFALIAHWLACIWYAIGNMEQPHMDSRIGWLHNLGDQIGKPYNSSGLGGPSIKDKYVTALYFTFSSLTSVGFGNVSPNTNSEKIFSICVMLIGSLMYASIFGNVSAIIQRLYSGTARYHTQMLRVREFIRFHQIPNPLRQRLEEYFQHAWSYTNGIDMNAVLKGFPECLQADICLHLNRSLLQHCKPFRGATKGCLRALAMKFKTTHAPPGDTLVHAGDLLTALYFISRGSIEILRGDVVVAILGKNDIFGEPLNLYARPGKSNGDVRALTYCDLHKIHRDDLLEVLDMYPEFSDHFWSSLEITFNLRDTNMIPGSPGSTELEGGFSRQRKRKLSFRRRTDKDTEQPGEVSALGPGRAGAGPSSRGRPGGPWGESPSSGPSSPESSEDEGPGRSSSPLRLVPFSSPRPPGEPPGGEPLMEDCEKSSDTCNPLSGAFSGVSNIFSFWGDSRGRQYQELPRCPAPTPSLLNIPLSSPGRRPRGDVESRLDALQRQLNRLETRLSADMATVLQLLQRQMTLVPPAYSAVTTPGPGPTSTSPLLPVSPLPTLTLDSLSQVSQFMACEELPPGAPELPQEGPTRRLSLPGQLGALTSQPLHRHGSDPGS

SMILES | hERG current change (%, negative = inhibition) at 1uM
CCOC(=O)NC(=O)CSc1ccc(C)cc1C | 11.4%
c1ccc2c(c1)nc(CN1CCOCC1)n1c3ccccc3nc21 | -13.9%
COc1ccc(Cl)cc1NC(=O)C1Cc2cc(S(=O)(=O)N3CCCC3)ccc2N1C(C)=O (stereo not drawn) | 3.74%
Cc1[nH]nc2ncc(C(=O)c3cc(F)ccc3O)cc12 | 10.2%
O=C(Nc1ccc(Cl)c(-c2nc3ccccc3[nH]2)c1)c1ccc2c(c1)OCO2 | -2.05%
Nc1nonc1-n1nnc(C(=O)N/N=C/c2c(Cl)cccc2Cl)c1CN1CCOCC1 | 9.4%
CCC(=O)n1nc(NCc2ccc(OC)c(OC)c2)nc1NCc1ccc(OC)c(OC)c1 | 10.6%
NS(=O)(=O)c1ccc(Nc2nc(-c3ccc(O)cc3)cs2)cc1 | 8.52%
CCOC(=O)/C=C1\SCC(=O)N1CC(=O)Nc1ccccc1OC(F)F | 16.9%
COc1ccccc1CCNC(=O)CCn1c(=O)oc2ccccc21 | 16.4%
CC(C)(C)c1cc(Cl)ccc1OCCn1ccnc1.O=C(O)C(=O)O | 14.2%
NC(=O)c1cccc2ccccc12 | 4.67%
CC(=O)c1c(C)nc(Nc2nc3ccccc3s2)nc1C | -0.171%
COc1cc(Cl)c(C)cc1NC(=O)CSc1cc(Cl)ccc1Cl | 9.02%
CCc1ccc2c(CN(CC)Cc3nc4ccccc4c(=O)[nH]3)cc(=O)oc2c1 | -60.5%
CCN1CCCC1CNC(=O)c1cc(OC)c(OC)c(OC)c1 (stereo not drawn) | 16%
Cc1ccc(N(C(=O)c2snc(C(N)=O)c2N)C(C(=O)NCC2CCCO2)c2ccc(C)o2)c(C)c1 (stereo not drawn) | -14.5%
CCOc1ccc2[nH]c(=O)c(CN(CCO)C(=O)CC)cc2c1 | 14.9%
Cc1c(C(=O)NC(=S)NCc2cccnc2)oc2ccccc12 | 7.18%
Cc1cccc(OCC(=O)Nc2cc(Cl)ccc2-n2cncn2)c1C | 5.34%
Cc1ccc(CNC(=O)/C=C/c2cccs2)cc1 | 11.6%
COc1ccc(Cc2nnc(NC(=O)c3ccc(F)cc3)s2)cc1OC | 18.4%
CCOc1nc2cnccc2n(CC(=O)Nc2ccccc2F)c1=O | 25%

SMILES | hERG current change (%, negative = inhibition) at 1uM
CCOc1ccc(Cc2c(Cl)nc(SC)nc2OC)cc1 | 8.33%
CN(CC(=O)Nc1ccc(Cl)c(C(F)(F)F)c1)C(=O)c1cccs1 | 16.8%
Cc1c(C)c2cc(Cl)c(O)c(CN3CCCCC3)c2oc1=O | 15.4%
Cc1cc(N2CCOCC2)nc(SCc2ccc(Cl)cc2Cl)n1 | 14.5%
O=C(CSc1nnc(-c2csc3c2CCCC3)o1)Nc1ccccc1 | -4.52%
Cc1cccc(-c2cc3nc4c(c(N5CCCC(O)C5)n3n2)CCC4)c1 (stereo not drawn) | 11.2%
Cc1sc2nc(CN3CCOCC3)nc(Oc3ccc(NC(=O)c4ccco4)cc3)c2c1C | 4.61%
CN(C)CCNc1nc(-c2ccccc2)c2c(c1C#N)CC(C)(C)OC2 | -27.7%
COc1ccc2[nH]c(=O)c(-c3noc(-c4ccc(F)cc4)n3)cc2c1 | 4.91%
CNC(=O)/C(=C\c1ccco1)NC(=O)c1ccco1 | 11.7%
CC(C)n1c(=O)c(C=Nc2ccc(S(N)(=O)=O)cc2)c(O)n(Cc2ccco2)c1=O | 14%
O=C(O)C(=O)O.OC(COC(c1ccc(F)cc1)c1ccc(F)cc1)CN1CCCC1 (stereo not drawn) | -62%
O=C(NNC(=O)c1ccc(Br)s1)c1cccc(Cl)c1 | 10.9%
O=C(NN=C1CCCCCC1)c1cc(-c2ccccc2)nc2ccccc12 | 5.86%
Cc1ccc(S(=O)(=O)NCC(=O)OCC(=O)NC(=O)c2cccn2C)cc1 | 17.4%
Cc1nn(-c2ccc(N3CCOCC3)nn2)c(C)c1CCC(=O)N1CCN(C)CC1 | 13.1%
Cn1c(=O)c2c(ncn2CC(=O)N/N=C/c2ccco2)n(C)c1=O | 3.67%
CC(=O)c1ccc(N2CCN(C(=O)Nc3ccc(Cl)cc3)CC2)cc1 | 8.73%
O=C(Cn1nc(-c2ccc3c(c2)OCCO3)ccc1=O)Nc1ccc(-n2cnnn2)cc1 | 13.7%
O=C(Nc1cccc(-n2cnnn2)c1)c1cc(Cl)nc(Cl)c1 | 4.83%
CCOC(=O)CSc1nnc(COc2ccc3ccccc3c2)o1 | 10%
CC(C)(C)c1ccc(Cn2nnc3c(=O)[nH]c(C4CCCN(C(=O)c5ccco5)C4)nc32)cc1 (stereo not drawn) | 8.87%

Reference: article PMC4336329 (PLoS ONE, 2015)
